Test results taken from PubChem BioAssay (NCI).
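GI50: concentration for 50% inhibition of growth.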 A number of entries come with more than one value. This is not the full list of results. The source may hold further records. A record mostly stands for its own series of concentrations, not given here; a value can be the end of its range.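 TGI is the concentration that stops growth completely.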

How the values were obtained:
Test in all cases: inhibition of tumour cell growth, NCI panel, 384-well format
COLO 205 colon = system: COLO 205 colon
NCI-H226 lung = system: NCI-H226 lung
U251 glioblastoma = system: U251 glioblastoma
A498 renal = system: A498 renal
UACC-257 melanoma = system: UACC-257 melanoma
EKVX NSCLC = system: EKVX NSCLC
SNB-75 CNS = system: SNB-75 CNS
MDA-MB-468 breast = system: MDA-MB-468 breast
BT-549 breast = system: BT-549 breast
SK-MEL-5 melanoma = system: SK-MEL-5 melanoma
SF-295 CNS = system: SF-295 CNS
NCI-H522 lung = system: NCI-H522 lung
UO-31 renal = system: UO-31 renal
SR leukemia = system: SR leukemia
MDA-MB-435 melanoma = system: MDA-MB-435 melanoma
SK-OV-3 ovarian = system: SK-OV-3 ovarian
SF-539 CNS = system: SF-539 CNS
SN12C renal = system: SN12C renal
M14 melanoma = system: M14 melanoma

Nc1nc2[nH]cc(CCc3ccc(C(=O)N[C@@H](CCC(=O)O)C(=O)O)cc3)c2c(=O)[nH]1
TGI (COLO 205 colon): 50 µM and 336 nM
TGI (NCI-H226 lung): 50 µM and 67.4 nM
TGI (U251 glioblastoma): 50 µM and 958 nM
GI50 (A498 renal): 563 nM and 54.6 nM
GI50 (UACC-257 melanoma): > 50 µM and 342 nM
TGI (UACC-257 melanoma): > 50 µM and 935 nM
GI50 (EKVX NSCLC): > 50 µM and 416 nM
TGI (SNB-75 CNS): 322 nM and > 100 µM
TGI (MDA-MB-468 breast): 464 nM and > 100 µM
TGI (BT-549 breast): 50 µM and 213 nM
GI50 (SK-MEL-5 melanoma): > 50 µM and 3.66 µM
TGI (SF-295 CNS): 50 µM and 618 nM
TGI (NCI-H522 lung): 50 µM and 860 nM
TGI (UO-31 renal): 50 µM and 92.4 nM
TGI (SR leukemia): 50 µM and 55.7 nM
GI50 (MDA-MB-435 melanoma): 309 nM and > 100 µM
GI50 (SK-OV-3 ovarian): > 50 µM and 70.3 nM
TGI (SF-539 CNS): 50 µM and 573 nM
TGI (SN12C renal): 50 µM and 193 nM
TGI (M14 melanoma): 50 µM and 613 nM
